Reference: PMC9232578
These are yes or no findings as the source states them, for the method shown. Binding seen in cells or lysates may run through a third protein. Some results given as binding are weak or reduced against the parent protein; the word gives no strength. Where a sequence is shown, tags or fusion partners need not be part of it.

T1: COX19-FLAG (human) (UniProt Q49B96)
T1 sequence: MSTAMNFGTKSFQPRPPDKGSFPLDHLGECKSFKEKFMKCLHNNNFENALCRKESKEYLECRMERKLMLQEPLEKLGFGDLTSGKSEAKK

T2: COX16-FLAG (human) (UniProt Q9P0S2)
T2 sequence: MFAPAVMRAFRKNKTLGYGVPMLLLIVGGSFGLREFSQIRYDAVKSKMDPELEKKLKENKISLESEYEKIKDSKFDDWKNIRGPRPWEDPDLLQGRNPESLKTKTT

T3: PET191(C30A, C41A)-FLAG (human) (UniProt Q86WW8)
T3 sequence: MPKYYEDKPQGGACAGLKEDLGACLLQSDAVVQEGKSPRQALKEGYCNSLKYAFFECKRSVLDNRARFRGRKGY

T4: PET191-FLAG (human) (UniProt Q86WW8)
T4 sequence: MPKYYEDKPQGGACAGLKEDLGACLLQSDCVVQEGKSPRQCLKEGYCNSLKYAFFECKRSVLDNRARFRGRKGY

T5: SCO1-FLAG (human) (UniProt O75880)
T5 sequence: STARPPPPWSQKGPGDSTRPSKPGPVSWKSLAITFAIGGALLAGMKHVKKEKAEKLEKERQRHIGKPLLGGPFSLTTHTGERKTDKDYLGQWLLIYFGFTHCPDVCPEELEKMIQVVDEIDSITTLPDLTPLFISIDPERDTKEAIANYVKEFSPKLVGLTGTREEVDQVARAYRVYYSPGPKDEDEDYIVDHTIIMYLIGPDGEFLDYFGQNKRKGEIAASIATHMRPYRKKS

T6: SCO2-FLAG (human) (UniProt O43819)
T6 sequence: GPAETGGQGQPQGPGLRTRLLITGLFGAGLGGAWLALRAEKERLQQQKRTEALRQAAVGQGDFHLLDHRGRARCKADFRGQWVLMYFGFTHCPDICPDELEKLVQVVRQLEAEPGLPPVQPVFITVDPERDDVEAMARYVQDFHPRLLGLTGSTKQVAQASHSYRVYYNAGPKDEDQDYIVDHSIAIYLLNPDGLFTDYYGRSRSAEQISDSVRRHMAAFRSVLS

T7: COX11 C219D-FLAG (human) (UniProt Q9Y6N1)
T7 sequence: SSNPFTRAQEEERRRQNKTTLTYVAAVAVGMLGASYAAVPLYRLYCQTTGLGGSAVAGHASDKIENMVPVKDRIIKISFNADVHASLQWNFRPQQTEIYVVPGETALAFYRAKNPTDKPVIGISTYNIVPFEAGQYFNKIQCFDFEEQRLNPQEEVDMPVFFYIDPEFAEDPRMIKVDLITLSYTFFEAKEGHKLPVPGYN

T8: COX11-FLAG (human) (UniProt Q9Y6N1)
T8 sequence: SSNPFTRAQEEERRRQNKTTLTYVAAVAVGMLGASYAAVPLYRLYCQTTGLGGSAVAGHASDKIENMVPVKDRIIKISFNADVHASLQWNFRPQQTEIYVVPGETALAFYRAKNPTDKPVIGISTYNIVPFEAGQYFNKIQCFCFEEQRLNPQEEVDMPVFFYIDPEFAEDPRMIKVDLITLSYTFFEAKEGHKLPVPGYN

T9: COX17-FLAG (human) (UniProt Q14061)
T9 sequence: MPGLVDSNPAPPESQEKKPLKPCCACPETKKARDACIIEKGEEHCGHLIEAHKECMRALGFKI


Tests used:
COX19-FLAG (human) [1] = target: T1, COX19-FLAG (human); experiment: co-IP; stable interactions: mitochondria without crosslinker (DMSO vehicle), extracted in PBS, 0.4% DDM, anti-FLAG beads 4 h at 4 C, five washes in PBS 0.05% DDM, immunoblotting; for COX11-COX19 also after pre-incubation of mitochondria with 5 mM GSH
COX16-FLAG (human) = target: T2, COX16-FLAG (human); experiment: cross-linking + co-IP; transient interactions: mitochondria treated with 1 mM DSP 1.5 h at 4 C (DMSO as vehicle control), quenched with 10 mM Tris-HCl, extracted in PBS, 0.4% DDM, anti-FLAG beads, immunoblotting for 13 candidate proteins; also in KO backgrounds and after chloramphenicol treatment
COX19-FLAG (human) [2] = target: T1, COX19-FLAG (human); experiment: as above
[3] = target: T3, PET191(C30A, C41A)-FLAG (human); experiment: as above
PET191-FLAG (human) = target: T4, PET191-FLAG (human); experiment: as above
SCO1-FLAG (human) = target: T5, SCO1-FLAG (human); experiment: as above
SCO2-FLAG (human) = target: T6, SCO2-FLAG (human); experiment: as above
COX11 C219D-FLAG (human) [4] = target: T7, COX11 C219D-FLAG (human); experiment: co-IP; stable interactions: mitochondria without crosslinker (DMSO vehicle), extracted in PBS, 0.4% DDM, anti-FLAG beads 4 h at 4 C, five washes in PBS 0.05% DDM, immunoblotting; for COX11-COX19 also after pre-incubation of mitochondria with 5 mM GSH
COX11-FLAG (human) [5] = target: T8, COX11-FLAG (human); experiment: as above
COX11 C219D-FLAG (human) [6] = target: T7, COX11 C219D-FLAG (human); experiment: cross-linking + co-IP; transient interactions: mitochondria treated with 1 mM DSP 1.5 h at 4 C (DMSO as vehicle control), quenched with 10 mM Tris-HCl, extracted in PBS, 0.4% DDM, anti-FLAG beads, immunoblotting for 13 candidate proteins; also in KO backgrounds and after chloramphenicol treatment
COX11-FLAG (human) [7] = target: T8, COX11-FLAG (human); experiment: as above
COX17-FLAG (human) = target: T9, COX17-FLAG (human); experiment: as above

Row | binding (COX19-FLAG (human) [1]) | binding (COX16-FLAG (human)) | binding (COX19-FLAG (human) [2]) | binding [3] | binding (PET191-FLAG (human)) | binding (SCO1-FLAG (human)) | binding (SCO2-FLAG (human)) | binding (COX11 C219D-FLAG (human) [4]) | binding (COX11-FLAG (human) [5]) | binding (COX11 C219D-FLAG (human) [6]) | binding (COX11-FLAG (human) [7]) | binding (COX17-FLAG (human)) | Binder
1 | binds | binds | binds | binds | binds | binds | binds |  |  |  |  |  | COX11 (endogenous) (protein, UniProt Q9Y6N1 76-276) SSNPFTRAQEEERRRQNKTTLTYVAAVAVGMLGASYAAVPLYRLYCQTTGLGGSAVAGHASDKIENMVPVKDRIIKISFNADVHASLQWNFRPQQTEIYVVPGETALAFYRAKNPTDKPVIGISTYNIVPFEAGQYFNKIQCFCFEEQRLNPQEEVDMPVFFYIDPEFAEDPRMIKVDLITLSYTFFEAKEGHKLPVPGYN
2 |  | binds |  |  | no binding | binds | binds | binds | binds | binds | binds | no binding | SURF1 (protein, UniProt Q15526 1-300) MAAVAALQLGLRAAGLGRAPASAAWRSVLRVSPRPGVAWRPSRCGSSAAEASATKAEDDSFLQWVLLLIPVTAFGLGTWQVQRRKWKLNLIAELESRVLAEPVPLPADPMELKNLEYRPVKVRGCFDHSKELYMMPRTMVDPVREAREGGLISSSTQSGAYVVTPFHCTDLGVTILVNRGFVPRKKVNPETRQKGQIEGEVDLIGMVRLTETRQPFVPENNPERNHWHYRDLEAMARITGAEPIFIDANFQSTVPGGPIGGQTRVTLRNEHLQYIVTWYGLSAATSYLWFKKFLRGTPGV
